Test results taken from a collection of fitness landscapes (doi:10.1016/j.celrep.2020.107928).
The full ranking holds about 81,000 sequences; the median of “one-hybrid fitness for binding parS DNA” is about -0.17, and the highest 2% start at about 0.51. Some of the results follow.

B1: Caulobacter ParB omega fusion; a variant is named by its letters at X, in order, B8GW30 (parent)
chain: MESVVVGEPGMSEGRRGLGRGLSALLGEVDAAPAQAPGEQLGGSREAPIEILQRNPDQPRRTFREEDLEDLSNSIREKGVLQPILVRPSPDTAGEYQIVAGERAWRAAQRAGLKTVPIMVRELDDLAVLEIGIIENVQRADLNVLEEALSYKVLMEKFERTQENIAQTIGKSXSHVANXMRLLXLPDEVQSYLVSGELTAXHARAIAAAADPVALAKQIIEGGLSVRETEALARKAPNLSAGKSKGGRPPRVKDTDTQALESDLSSVLGLDVSIDHRGSTGTLTITYATLEQLDDLCNRLTRGI

Variants of: B1
Assay: one-hybrid fitness for binding parS DNA (scaled: cognate 1, non-cognate 0); higher = stronger binding
Details: with parS DNA site
Method in brief: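 Values were rescaled so that cognate is 1 and non-cognate is 0. Each is a fitness, the log change in a variant's read ratio to wild type from Illumina reads of plasmids before and after selection, with three replicate libraries pooled and variants under 10 reads dropped. Selection of the Caulobacter ParB libraries, four specificity codons randomised, used E. coli USO with a HIS3 reporter, site 19 bp from the promoter, on M9-minus-histidine with 0.1 mM IPTG and 5 mM 3-AT for 48 hours at 37°C.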

Row | Variant | one-hybrid fitness for binding parS DNA
1 | GTWE | 0.297
2 | YCSV | ≤ 0.2
3 | KYMG | ≤ 0.2
4 | ENTG | ≤ 0.2
5 | NHAI | ≤ 0.2
6 | THQT | ≤ 0.2
7 | GLGG | ≤ 0.2
8 | FCML | ≤ 0.2
9 | LTRE | ≤ 0.2
10 | QGHG | ≤ 0.2
11 | IFMG | ≤ 0.2
12 | SVMV | ≤ 0.2
13 | RRQR | ≤ 0.2
14 | HHTT | ≤ 0.2
15 | SPCV | ≤ 0.2
16 | PASL | ≤ 0.2
17 | GKKT | ≤ 0.2
18 | RFYL | ≤ 0.2
19 | TDPC | ≤ 0.2
20 | YSNC | 0.215
21 | TICM | ≤ 0.2
22 | IHIS | ≤ 0.2
23 | LTFC | ≤ 0.2
24 | DFLV | ≤ 0.2

Row | Variant | one-hybrid fitness for binding parS DNA
25 | SLHW | ≤ 0.2
26 | YTKR | ≤ 0.2
27 | LLQC | ≤ 0.2
28 | RGRQ | ≤ 0.2
29 | NMTN | ≤ 0.2
30 | CRKA | ≤ 0.2
31 | NGGT | ≤ 0.2
32 | QLKA | ≤ 0.2
33 | RNRE | ≤ 0.2
34 | IADG | ≤ 0.2
35 | EKRH | ≤ 0.2
36 | LCRL | ≤ 0.2
37 | SWPG | ≤ 0.2
38 | QPEM | ≤ 0.2
39 | KLRM | ≤ 0.2
40 | IDQG | ≤ 0.2
41 | RSLM | 0.32
42 | QQSD | ≤ 0.2
43 | GHRR | ≤ 0.2
44 | YCMR | ≤ 0.2
45 | RMGE | ≤ 0.2
46 | TYRF | ≤ 0.2
47 | HYTV | ≤ 0.2
48 | ARPR | ≤ 0.2

Row | Variant | one-hybrid fitness for binding parS DNA
49 | VMQS | ≤ 0.2
50 | RMAF | 0.253
51 | GPTI | ≤ 0.2
52 | SCHW | ≤ 0.2
53 | QENV | ≤ 0.2
54 | KVNC | ≤ 0.2
55 | EKSS | ≤ 0.2
56 | ISAY | ≤ 0.2
57 | LYKN | ≤ 0.2
58 | SINR | ≤ 0.2
59 | QVRR | ≤ 0.2
60 | PPTT | ≤ 0.2
61 | SFWF | ≤ 0.2
62 | HAWC | ≤ 0.2
63 | HMCS | ≤ 0.2
64 | CAPC | ≤ 0.2
65 | SPQA | ≤ 0.2
66 | NHND | ≤ 0.2
67 | RCRW | 0.337
68 | IMAC | ≤ 0.2
69 | FETR | ≤ 0.2
70 | DSPS | ≤ 0.2
71 | QGGL | ≤ 0.2
72 | PCES | ≤ 0.2

Row | Variant | one-hybrid fitness for binding parS DNA
73 | FISR | ≤ 0.2
74 | DMTN | ≤ 0.2
75 | DPWK | ≤ 0.2
76 | VAWC | ≤ 0.2
77 | SGSC | ≤ 0.2
78 | MPRE | ≤ 0.2
79 | VMIM | ≤ 0.2
80 | YWVI | 0.273
81 | VALC | ≤ 0.2
82 | ARIR | ≤ 0.2
83 | KRMD | ≤ 0.2
84 | RRYV | ≤ 0.2
85 | VNNR | ≤ 0.2
86 | SDFC | ≤ 0.2
87 | DSTS | ≤ 0.2
88 | PEKS | ≤ 0.2
89 | IGKV | ≤ 0.2
90 | LQAR | ≤ 0.2
91 | PYII | ≤ 0.2
92 | DLWA | ≤ 0.2
93 | NWPD | ≤ 0.2
94 | LHSY | ≤ 0.2
95 | AMEV | ≤ 0.2
96 | NSQT | ≤ 0.2

Row | Variant | one-hybrid fitness for binding parS DNA
97 | HHRT | ≤ 0.2
98 | EVKL | ≤ 0.2
99 | TSPG | ≤ 0.2
100 | ETVF | ≤ 0.2
101 | RITI | ≤ 0.2
102 | KEHG | ≤ 0.2
103 | LSMW | ≤ 0.2
104 | LQPC | ≤ 0.2
105 | DAAA | ≤ 0.2
106 | KRDK | ≤ 0.2
107 | HKNW | ≤ 0.2
108 | HLCW | ≤ 0.2
109 | HPPP | ≤ 0.2
110 | APDG | ≤ 0.2
111 | QLTH | ≤ 0.2
112 | QKCF | ≤ 0.2
113 | IYYC | ≤ 0.2
114 | RVEW | ≤ 0.2
115 | RFMK | ≤ 0.2
116 | IMFV | ≤ 0.2
117 | DRNT | ≤ 0.2
118 | RYTW | ≤ 0.2
119 | GQQY | ≤ 0.2
120 | RPEY | ≤ 0.2

Row | Variant | one-hybrid fitness for binding parS DNA
121 | DPTM | ≤ 0.2
122 | WSSV | ≤ 0.2
123 | YAQM | ≤ 0.2
124 | DTLA | ≤ 0.2
125 | RYCY | 0.39
126 | SIIV | ≤ 0.2
127 | RQIQ | ≤ 0.2
128 | WTDE | ≤ 0.2
129 | NHHS | ≤ 0.2
130 | SGPW | ≤ 0.2
131 | WSDC | ≤ 0.2
132 | IARR | ≤ 0.2
133 | ATRS | ≤ 0.2
134 | YVDF | ≤ 0.2
135 | NEPG | ≤ 0.2
136 | DFNT | ≤ 0.2
137 | AHDG | ≤ 0.2
138 | EVRV | ≤ 0.2
139 | RMDD | ≤ 0.2
140 | HPAW | ≤ 0.2
141 | ITAD | ≤ 0.2
142 | RHDG | 0.917
143 | RGAI | ≤ 0.2
144 | HKPR | ≤ 0.2

Row | Variant | one-hybrid fitness for binding parS DNA
145 | KMSM | ≤ 0.2
146 | KCTN | ≤ 0.2
147 | MGLC | ≤ 0.2
148 | WRKL | ≤ 0.2
149 | DTNM | ≤ 0.2
150 | QFLL | ≤ 0.2
151 | QPKQ | ≤ 0.2
152 | GGVR | ≤ 0.2
153 | VGLL | ≤ 0.2
154 | TMIS | ≤ 0.2
155 | SSDG | ≤ 0.2
156 | ISRK | ≤ 0.2
157 | DIWY | ≤ 0.2
158 | LGES | ≤ 0.2
159 | HTRP | ≤ 0.2
160 | VSLL | ≤ 0.2
161 | CARS | ≤ 0.2
162 | RARI | ≤ 0.2
163 | RLND | ≤ 0.2
164 | KQFV | ≤ 0.2
165 | ELRV | ≤ 0.2
166 | PFIM | ≤ 0.2
167 | GGMY | ≤ 0.2
168 | QCPA | ≤ 0.2

Row | Variant | one-hybrid fitness for binding parS DNA
169 | IWES | ≤ 0.2
170 | CSWG | ≤ 0.2
171 | NNDL | ≤ 0.2
172 | GTEG | ≤ 0.2
173 | CITH | ≤ 0.2
174 | YQIS | ≤ 0.2
175 | HALF | ≤ 0.2
176 | RRTN | 0.695
177 | DFRY | ≤ 0.2
178 | SMST | ≤ 0.2
179 | PHCE | ≤ 0.2
180 | SPYG | ≤ 0.2
181 | NVQQ | ≤ 0.2
182 | YKDN | ≤ 0.2
183 | TQYL | ≤ 0.2
184 | PYTN | ≤ 0.2
185 | RCYT | 0.963
186 | KWRS | 0.325
187 | DIGK | ≤ 0.2
188 | GTAK | ≤ 0.2
189 | CHSY | ≤ 0.2
190 | SIAL | ≤ 0.2
191 | PFIR | ≤ 0.2
192 | HVNL | ≤ 0.2

Row | Variant | one-hybrid fitness for binding parS DNA
193 | LGEG | ≤ 0.2
194 | TTMI | ≤ 0.2
195 | SKTY | ≤ 0.2
196 | RMYY | 0.483
197 | SLRM | ≤ 0.2
198 | LLAH | ≤ 0.2
199 | DCDT | ≤ 0.2
200 | RCLC | 1.02
201 | HDPM | ≤ 0.2
202 | EHKR | ≤ 0.2
203 | FMKK | ≤ 0.2
204 | WLLN | ≤ 0.2
205 | QNIS | ≤ 0.2
206 | QFPI | ≤ 0.2
207 | RYRQ | ≤ 0.2
208 | GRAV | ≤ 0.2
209 | KLGN | ≤ 0.2
210 | PVHL | ≤ 0.2
211 | IAPM | ≤ 0.2
212 | APAN | ≤ 0.2
213 | RMKN | 0.432
214 | CLDV | ≤ 0.2
215 | RQGF | 0.234
216 | RNHH | ≤ 0.2

Row | Variant | one-hybrid fitness for binding parS DNA
217 | PMHT | ≤ 0.2
218 | RRNF | ≤ 0.2
219 | DVKT | ≤ 0.2
220 | PQPV | ≤ 0.2
221 | TQRL | ≤ 0.2
222 | STVT | ≤ 0.2
223 | RKHC | 0.882
224 | THRN | ≤ 0.2
225 | RPLK | ≤ 0.2
226 | CPGC | ≤ 0.2
227 | KPFR | ≤ 0.2
228 | TCCR | ≤ 0.2
229 | WSIR | ≤ 0.2
230 | NDME | ≤ 0.2
231 | ISPC | ≤ 0.2
232 | RVYG | 1.02
233 | QYPG | ≤ 0.2
234 | ELSN | ≤ 0.2
235 | YDHS | ≤ 0.2
236 | SHSW | ≤ 0.2
237 | GPLE | ≤ 0.2
238 | PGVR | ≤ 0.2
239 | PCCH | ≤ 0.2
240 | AGNN | ≤ 0.2

Row | Variant | one-hybrid fitness for binding parS DNA
241 | MTHG | ≤ 0.2
242 | QGAM | ≤ 0.2
243 | QLQR | ≤ 0.2
244 | LAPQ | ≤ 0.2
245 | CWVG | ≤ 0.2
246 | EWGR | ≤ 0.2
247 | FGRR | ≤ 0.2
248 | KDNV | ≤ 0.2
249 | TTTY | ≤ 0.2
250 | RWTA | 0.459
251 | ACHY | ≤ 0.2
252 | HRHQ | ≤ 0.2
253 | PHPV | ≤ 0.2
254 | FQKR | ≤ 0.2
255 | PVTC | ≤ 0.2
256 | NIQN | ≤ 0.2
257 | KLGT | ≤ 0.2
258 | SPCL | ≤ 0.2
259 | LGRR | ≤ 0.2
260 | RGRR | ≤ 0.2
261 | GWES | ≤ 0.2
262 | AGLN | ≤ 0.2
263 | TRGW | ≤ 0.2
264 | VSPE | ≤ 0.2

Row | Variant | one-hybrid fitness for binding parS DNA
265 | SAWG | ≤ 0.2
266 | NHDC | ≤ 0.2
267 | EMDG | ≤ 0.2
268 | QQLC | ≤ 0.2
269 | IRSA | ≤ 0.2
270 | RYGN | 0.408
271 | NCTT | ≤ 0.2
272 | RSCC | 0.915
273 | TSDA | ≤ 0.2
274 | HRRN | ≤ 0.2
275 | FLYG | ≤ 0.2
276 | VHEV | ≤ 0.2
277 | QQKR | ≤ 0.2
278 | QALN | ≤ 0.2
279 | QTPF | ≤ 0.2
280 | SVNG | ≤ 0.2
281 | HTGV | ≤ 0.2
282 | TDTV | ≤ 0.2
283 | HSGD | ≤ 0.2
284 | HRFP | ≤ 0.2
285 | MCYG | ≤ 0.2
286 | WDLR | ≤ 0.2
287 | TNAA | ≤ 0.2
288 | MAVE | ≤ 0.2

Row | Variant | one-hybrid fitness for binding parS DNA
289 | TCVP | ≤ 0.2
290 | QWTW | ≤ 0.2
291 | HYQG | ≤ 0.2
292 | QLCF | ≤ 0.2
293 | IAVS | ≤ 0.2
294 | TLTH | ≤ 0.2
295 | QMTY | ≤ 0.2
296 | CQLS | ≤ 0.2
297 | HFHL | ≤ 0.2
298 | HDRP | ≤ 0.2
299 | MSLI | ≤ 0.2
300 | HNKY | ≤ 0.2
301 | RNWN | ≤ 0.2
302 | CPRV | ≤ 0.2
303 | ATQE | ≤ 0.2
304 | YVQC | ≤ 0.2
305 | PKYS | ≤ 0.2
306 | TVEL | ≤ 0.2
